The list shows a part of the results. At the low end of the ranking the order means little.

The target of the experiment is SIX1-Q177R homeodomain (UniProt Q15475). In words: universal protein binding microarray. The conditions noted are these: Universal all-10-mer PBM (8x60K, AMADID 030236), 300 nM GST-tagged protein, Alexa Fluor 488 anti-GST; buffer, salt, pH and temperature not stated; high values mean tight binding; most listed sequences are background and not binding sites; double strand, one strand shown.
With ACAATTCT, the binding signal was -0.202 E-score.
Consider AGATGTCG, for which the binding signal is -0.0403 E-score.
Turning to ATTTCGTC, the binding signal was -0.179 E-score.
As to CAGCGGAC, the binding signal is -0.131 E-score.
For TCAACCGA, the binding signal is -0.13 E-score.
In the case of ATGTCGTA, the binding signal is -0.0526 E-score.
On to ATGAGTGA, for which the binding signal is -0.118 E-score.
With CGCGTATC, the binding signal amounted to 0.155 E-score.
On to GGTTGCTA, for which the binding signal is -0.122 E-score.
In the case of ACTACTGC, the binding signal is -0.19 E-score.
On to CTGTGGCC, for which the binding signal is -0.187 E-score.
As to CGGAGTAC, the binding signal was 0.229 E-score.
Regarding CCGCTATA, the binding signal is -0.0308 E-score.
Take CCACAACC: the binding signal is -0.0338 E-score.
In the case of ACCGTAGA it was 0.0295 E-score; in that of GTGAGCAA, -0.0741 E-score.
With AGCTTGAT, the binding signal was -0.126 E-score.
Consider CGATCGAA, for which the binding signal is -0.0295 E-score.
As to AACTGACC, the binding signal is -0.0459 E-score.
Turning to AAAAAAAT, the binding signal is -0.266 E-score.
On to CTATCCGC, for which the binding signal was -0.171 E-score.
AGCCAGTC: the binding signal came to 0.018 E-score.
For GAGTGTCC, the binding signal turned out to be 0.406 E-score.
In the case of AGGTACCT, the binding signal came out at 0.129 E-score.
For CATGCCTA, the binding signal was -0.274 E-score.
In the case of ACCATGCC it was 0.0501 E-score; in that of CTACTGTA, 0.137 E-score; in that of CAATAGTG, 0.17 E-score.
Regarding GGGGGGAC, the binding signal is -0.0437 E-score.
Turning to CAGTTTCC, the binding signal was -0.102 E-score.
For CAACCTGG, the binding signal was found to be 0.0935 E-score.
For ACTGAACA the value was 0.0692 E-score.
In the case of GACTAATA, the binding signal is -0.137 E-score.
In the case of AGTTATCA it was -0.187 E-score.
In the case of AATAGCCG, the binding signal is -0.0922 E-score.
Regarding ACCTCCTA, the binding signal stood at 0.149 E-score.
Turning to AAACATCC, the binding signal is -0.0426 E-score.
Turning to CGAGGTAC, the binding signal was 0.0579 E-score.
On to CCGGGACA, for which the binding signal turned out to be 0.104 E-score.
On to ATACTTCG, for which the binding signal was -0.0819 E-score.
Consider AATGGGAC, for which the binding signal is -0.256 E-score.
In the case of AAGGAATT it was -0.277 E-score; in that of AATTTCGT, -0.159 E-score; in that of AGTATATC, -0.132 E-score.
Turning to GAGAAACA, the binding signal is 0.0411 E-score.
Consider GCGACGCA, for which the binding signal was 0.0242 E-score.
TCGTCCCA: the binding signal is -0.168 E-score.
In the case of CAAACTTC it was -0.214 E-score.
As to TCGGAAAA, the binding signal is -0.113 E-score.
For the sequence AGTCCATC, the binding signal is -0.117 E-score.
Consider GTCAATAA, for which the binding signal is -0.0584 E-score.
With ATGACGTA, the binding signal is -0.0851 E-score.
Regarding AATATCGC, the binding signal was -0.322 E-score.
With CTCCAATA, the binding signal was -0.17 E-score.
For the sequence GACTTTAA, the binding signal was -0.235 E-score.
Regarding ATGCCCAA, the binding signal is -0.205 E-score.
As to AACGACAC, the binding signal was determined as 0.447 E-score.
Take CACGCGAA: the binding signal stood at 0.0834 E-score.
On to CCATATGC, for which the binding signal is -0.0273 E-score.
As for TGGAGAAA, the binding signal was -0.208 E-score.
For AGCCTGTA, the binding signal is -0.0447 E-score.
For the sequence CTGGGATA, the binding signal turned out to be 0.0215 E-score.
On to TATGTCGA, for which the binding signal was -0.267 E-score.
In the case of CGCCGAAG it was -0.113 E-score.
Consider ATTGCGGC, for which the binding signal was -0.121 E-score.
CCGTTACG: the binding signal worked out at 0.00018 E-score.
For the sequence CTTGGAAC, the binding signal is -0.127 E-score.
Turning to ACCGTAAT, the binding signal was -0.136 E-score.
In the case of GATGTCTA, the binding signal was -0.158 E-score.
With AGGGATTA, the binding signal was -0.0304 E-score.
For GCCCAAAC, the binding signal was 0.0628 E-score.
CAGGGCGG: the binding signal was -0.0444 E-score.
GTGCGCCA: the binding signal worked out at 0.148 E-score.
For GAAGGACA the value was 0.176 E-score.
In the case of ATTTAGTC it was -0.0571 E-score; in that of TGTTTCAA, -0.00756 E-score.
For the sequence CAGGTTGG, the binding signal worked out at 0.00023 E-score.
For GCCGCAGC, the binding signal is -0.17 E-score.
In the case of ACATGACA it was 0.179 E-score; in that of CGATGATA, 0.039 E-score.
For GATAAGGC the value was -0.0639 E-score; for CGAACACG, 0.356 E-score.
In the case of TAGCGTAA it was -0.00532 E-score.
Take AGCCCCCG: the binding signal came to 0.0315 E-score.
As to GGTGAAGA, the binding signal turned out to be 0.0135 E-score.
As to GTCCTCCA, the binding signal was found to be 0.125 E-score.
For ATAACGTA the value was -0.137 E-score.
With GACGACCA, the binding signal is -0.0548 E-score.
As for ACTAAGAG, the binding signal was 0.0429 E-score.
For AGTCACTC the value was 0.0396 E-score; for AGGTTTCG, -0.102 E-score.
With CCCAACGC, the binding signal amounted to 0.0779 E-score.
In the case of ACTATCTA it was -0.0674 E-score; in that of TCCCATCA, -0.0202 E-score; in that of CACCACAC, 0.426 E-score.
For the sequence TGAATTAA, the binding signal was -0.165 E-score.
Take AGACGTCT: the binding signal was -0.293 E-score.
Consider AGCTTTTG, for which the binding signal is -0.262 E-score.
For CGGCTTAC, the binding signal was -0.0076 E-score.
In the case of AAGTAGGA, the binding signal stood at 0.0702 E-score.
With TCCACCAA, the binding signal was 0.0144 E-score.
Take ATAGCGAG: the binding signal is -0.088 E-score.
For CGGGAGTC, the binding signal came out at 0.232 E-score.
Consider CCCATTTA, for which the binding signal is 0.0242 E-score.
For CTGTCGTC, the binding signal is -0.163 E-score.
Regarding AACCTGGA, the binding signal was found to be 0.0671 E-score.
For the sequence ACTATAAA, the binding signal is -0.0995 E-score.
On to TACCAAGA, for which the binding signal was -0.0432 E-score.
For CTTGGGTC the value was -0.0354 E-score; for AGATTATC, -0.254 E-score.

The record behind these values is publication PMC10668032.
